We go through 4 compounds from PubChem BioAssay (NCI).

Some test systems named below: IGROV1 ovarian; T-47D breast; TK-10 renal; K-562 leukemia; CCRF-CEM leukemia; HCT-116 colon; NCI-H522 lung; KM20L2 colon; SR leukemia; XF 498 CNS.
What all share (experiment): NCI anticancer screen, dose series, 48 h

The structures appear in SMILES notation.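 48-hour exposure; five concentrations; linearly interpolated endpoints. The concentration for 50% growth inhibition is given as GI50.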 Some entries of the source have several records that differ or are many. This list holds those alone. The source may hold further records. For part of these data: Values that stand side by side are repeated measurements in other runs, samples, wells, individuals or studies. What stands in brackets tells the records apart. A, B and so on number the origins entry by entry.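 TGI marks complete inhibition of growth.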 For part of these data: The tests behind the records often covered other concentration ranges, which the source does not state; some values may only mark the edge of a range. Where a SMILES comes first, the peptide text is derived from it. The star is where a group is joined. Boc = CC(C)(C)OC(=O)*

Consider `CN(C)C/C=C/C(=O)Nc1cc2c(Nc3ccc(F)c(Cl)c3)ncnc2cc1O[C@H]1CCOC1`, for which the GI50 was 271 nM [sample A, mean of 2 tests] and 8.81 nM [sample B, mean of 2 tests] in the test on IGROV1 ovarian; 711 nM [sample A, mean of 2 tests] and 29.6 nM [sample B, mean of 2 tests] in the test on T-47D breast. In addition, the TGI in the test with TK-10 renal was 151 nM [sample A, mean of 2 tests] and > 6.33 µM [sample B, mean of 2 tests].

On to `CC1(Br)Cc2ccccc2C1=O` (configuration not stated), for which, in the test on K-562 leukemia, the TGI was 9.12 µM and > 100 µM.

As to `COC(=O)C(C)NC(=O)C(CCSC)NC(=O)C(Cc1ccccc1)NC(=O)OC(C)(C)C` (stereo not drawn) (Boc-Phe-Met-Ala-OMe; configuration not given here), the TGI in the test with CCRF-CEM leukemia was 14.2 µg/mL [sample A] and > 100 µM [sample B]; in the test on HCT-116 colon, 32 µg/mL [sample A] and > 100 µM [sample B]; in the test on NCI-H522 lung it was 29.6 µg/mL [sample A] and > 100 µM [sample B]; in the test with TK-10 renal it was 19.7 µg/mL [sample A] and > 100 µM [sample B].

Take `C/C(=N\NC(=S)N1CCCCCC1)c1ccccn1`: the TGI in the test with CCRF-CEM leukemia was 394 nM and > 81 µM; in the test with KM20L2 colon, 18.6 nM and 1.03 µM; in the test with SR leukemia, 2.67 µM and > 100 µM; in the test on XF 498 CNS it was 32.7 nM and 1.78 µM.
